# The campaign covered roughly 420,000 compounds. About 50,000 (12%) were called active. The inconclusive results got no clear call from the source; some entries with a clear call stand among them for comparison. The call rests on the fitted dose curve; in most records, active means well fitted inhibition curve with a large enough effect; inconclusive means small, poorly fitted or top-dose-only effect; inactive means flat fitted curve, though single readings scatter. Potencies of inconclusive entries are left out as doubtful fits.
# Experiment: qHTS for Inhibitors of human tyrosyl-DNA phosphodiesterase 1 (TDP1): qHTS in cells in presence of CPT; further: nearly all actives have a fitted effect of over 55% in size
# Details: chicken DT40 Tdp1-/-;hTDP1 cells + 20 nM CPT, ATP luminescence, 48 h; activity change, negative = growth inhibition: at 46.2 µM (top of the series)
# Outline: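 Cell growth measured by CellTiter-Glo luminescence after a minimum 48 h, 37 C compound exposure with 20 nM CPT in Tdp1-knockout DT40 cells stably expressing hTDP1, seeded 400/well; qHTS titration format.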
# On the % scale 0 is the no-effect control and ±100 the full control effect; potency means the concentration at half of the fitted maximal effect; tags describe the fitted curve by direction and shape.
SMILES,Potency,"activity change, negative = growth inhibition"
COc1cc(Cl)c(C)cc1NC(=O)c1c(C)oc2nc(C)nc(N3CCCC3)c12,"inconclusive [inhibitor, single point]",–
Cc1noc(-c2ccc(N3CCCCC3C)c([N+](=O)[O-])c2)n1 (stereo not given),–,inactive: -17.2%
COc1ccc(CC2(CO)CCN(Cc3cnn(-c4ccc(F)cc4)c3)CC2)cc1,–,inactive: -16.4%
CCOC(=O)NN=C1c2ccccc2-c2ccccc21,"inconclusive [inhibitor, single point]",–
Cc1ccc(C(=O)N/N=C/c2ccc(-c3ccc(Br)cc3[N+](=O)[O-])o2)o1,"inconclusive [inhibitor, single point]",–
COc1ccccc1N(C)S(=O)(=O)c1ccc(C(=O)NCCCN2CCCC2=O)cc1,"inconclusive [inhibitor, single point]",–
Cc1ccc(S(=O)(=O)N2CCCOC2CNC(=O)C(=O)NCCc2ccco2)cc1 (stereo not given),–,inconclusive: -30.2% [inhibitor]
Cc1ccccc1-c1cc2nc(NCc3ccc(N(C)C)cc3)n(C)c(=O)c2s1,"inconclusive [inhibitor, single point]",–
COc1ccc(/C=C2/CCc3ccccc3C2=O)cc1CN1CCOCC1,active: 23.1 µM,–
Cc1ccc(NC(=O)CCCCCN2C(=O)c3ccccc3C2=O)nc1,–,inactive: -0.911%
CN(N=O)c1ccc(C=C2c3ccccc3-c3ccccc32)cc1,"inconclusive [inhibitor, single point]",–
Cc1csc(C(=O)NN)c1N(C)C,–,inactive: -0.412%
O=C(Cn1c(-c2cccs2)cc2ccccc21)NCCCN1CCN(c2cccc(Cl)c2)CC1,"inconclusive [inhibitor, single point]",–
CCOc1ccc(OCC(=O)OC(C)C(=O)NC2CCCC2)cc1 (stereo not given),–,inactive: 14.6%
CCc1nnc(NC(=O)CSc2nccn2Cc2ccccc2)s1,"inconclusive [inhibitor, partial curve]",–
COc1cc(/C=N/NC(=O)c2nnn(-c3nonc3N)c2C(C)C)ccc1OCc1ccc(F)cc1,"inconclusive [inhibitor, single point]",–
CN(Cc1ccccc1F)C(=O)c1ccccc1Sc1ccccc1C#N,"inconclusive [inhibitor, single point]",–
O=C(O)CCC(=O)Nc1ccccc1C(=O)NCc1ccco1,–,inactive: 0.0285%
CCOc1ccc2[nH]c(=O)c(CN(CCO)C(=O)c3ccc(Br)cc3)cc2c1,"inconclusive [inhibitor, partial curve]",–
O=C(O)c1cccc(N2C(=O)C=CC2=O)c1,"inconclusive [inhibitor, single point]",–

# — PubChem BioAssay AID686979 (National Center for Advancing Translational Sciences (NCATS), 2013)
